The supplement of paper PMC4967469
IC50 is the fitted dose that halves viability relative to control wells, and lower means more sensitive; fits outside the tested doses are given as limits. AUC, from the same fit, is the share of area under the viability curve across the 256-fold dose range; the more sensitive the line, the further below 1. For some of these results: A top dose marked as inferred was derived from the fitted curves, not read from the paper. For some of these results: An entry number marks a drug with two screens in the source, which often give different values.

Legend:
Assay in all cases: Viability of human cancer cell lines after 72 h of drug (GDSC screen)
Docetaxel = compound: CC(=O)O[C@@]12CO[C@@H]1C[C@H](O)[C@@]1(C)C(=O)[C@H](O)C3=C(C)[C@@H](OC(=O)[C@H](O)[C@@H](NC(=O)OC(C)(C)C)c4ccccc4)C[C@@](O)([C@@H](OC(=O)c4ccccc4)[C@H]21)C3(C)C [Docetaxel]; conditions: top dose 0.0125 µM
Protocol: (§1)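 Human cancer cell lines in 384-well plates, medium with 10% serum, drug for 72 h over a 256-fold dose range (nine 2-fold or five 4-fold steps up to the top dose). Adherent lines were fixed and stained with the nucleic acid dye Syto60, suspension lines read with resazurin; signal relative to control wells, capped at 0 and 100%. One two-parameter sigmoid per drug and line, fitted in a mixed model over all curves with the slope shared within a line.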

JNK Inhibitor VIII = compound: CCOc1nc(NC(=O)Cc2cc(OC)ccc2OC)cc(N)c1C#N [JNK Inhibitor VIII]; conditions: top dose 10 µM; top dose inferred
Protocol: as §1

Belinostat = compound: O=C(/C=C/c1cccc(S(=O)(=O)Nc2ccccc2)c1)NO [Belinostat]; conditions: top dose 20 µM; top dose inferred
Protocol: as §1

OSI-906 = compound: C[C@]1(O)C[C@@H](c2nc(-c3ccc4ccc(-c5ccccc5)nc4c3)c3c(N)nccn32)C1 [OSI-906]; conditions: top dose 2.56 µM; top dose inferred
Protocol: as §1

AMG-706 = compound: CC1(C)CNc2cc(NC(=O)c3cccnc3NCc3ccncc3)ccc21 [AMG-706]; conditions: top dose 2 µM; top dose inferred
Protocol: as §1

Cyclopamine = compound: CC1=C2C[C@H]3[C@@H](CC=C4C[C@@H](O)CC[C@@]43C)[C@@H]2CC[C@]12O[C@@H]1C[C@H](C)CN[C@H]1[C@H]2C [Cyclopamine]; conditions: top dose 16 µM; top dose inferred
Protocol: as §1

FTI-277 = compound: COC(=O)[C@H](CCSC)NC(=O)c1ccc(NC[C@@H](N)CS)cc1-c1ccccc1 [FTI-277]; conditions: top dose 1.024 µM; top dose inferred
Protocol: as §1

JNJ-26854165 = compound: c1ccc2c(CCNc3ccc(Nc4ccncc4)cc3)c[nH]c2c1 [JNJ-26854165]; conditions: top dose 10 µM
Protocol: as §1

YM155 = compound: COCC[n+]1c2c(n(Cc3cnccn3)c1C)C(=O)c1ccccc1C2=O [YM155]; conditions: top dose 5.12 µM
Protocol: as §1

JQ1 = compound: Cc1sc2c(c1C)C(c1ccc(Cl)cc1)=N[C@@H](CC(=O)OC(C)(C)C)c1nnc(C)n1-2 [JQ1]
Protocol: as §1

SB-715992 = compound: Cc1ccc(C(=O)N(CCCN)[C@@H](c2nc3cc(Cl)ccc3c(=O)n2Cc2ccccc2)C(C)C)cc1 [SB-715992]; conditions: top dose 0.128 µM; top dose inferred
Protocol: as §1

CGP-60474 = compound: OCCCNc1cc(-c2ccnc(Nc3cccc(Cl)c3)n2)ccn1 [CGP-60474]; conditions: top dose 0.256 µM; top dose inferred
Protocol: as §1

NSC-207895 = compound: CN1CCN(c2ccc([N+](=O)[O-])c3no[n+]([O-])c23)CC1 [NSC-207895]; conditions: top dose 20 µM; top dose inferred
Protocol: as §1

[1] = top dose 1 µM, screen: GDSC drug entry 1218, top dose inferred
[2] = top dose 2.56 µM, screen: GDSC drug entry 163

Row | Cell Line | AUC (Docetaxel) | IC50 (Docetaxel) [nM] | AUC (JNK Inhibitor VIII) | IC50 (JNK Inhibitor VIII) [nM] | AUC (Belinostat) | IC50 (Belinostat) [nM] | AUC (OSI-906) | IC50 (OSI-906) [nM] | AUC (AMG-706) | IC50 (AMG-706) [nM] | AUC (Cyclopamine) | IC50 (Cyclopamine) [nM] | AUC (FTI-277) | IC50 (FTI-277) [nM] | AUC (JNJ-26854165) | IC50 (JNJ-26854165) [nM] | AUC (YM155) | IC50 (YM155) [nM] | AUC (JQ1; [1]) | IC50 (JQ1; [1]) [nM] | AUC (JQ1; [2]) | IC50 (JQ1; [2]) [nM] | AUC (SB-715992) | IC50 (SB-715992) [nM] | AUC (CGP-60474) | IC50 (CGP-60474) [nM] | AUC (NSC-207895) | IC50 (NSC-207895) [nM]
1 | EW-18 (Ewing sarcoma, suspension) | 0.796 | 6.29 | 0.986 | > 10000 | 0.16 | 103 | 0.615 | 339 | 0.984 | > 2000 | 0.981 | > 16000 | 0.952 | > 1020 | 0.942 | > 10000 | 0.041 | < 20 | 0.961 | > 1000 | 0.949 | > 2560 | 0.587 | 14.1 | 0.977 | > 256 | 0.876 | > 20000
2 | LS-513 (large intestine, adherent) | 0.938 | > 12.5 | 0.987 | > 10000 | 0.56 | 1840 | 0.82 | 1550 | 0.987 | > 2000 | 0.859 | 14200 | 0.984 | > 1020 | 0.851 | 8170 | 0.723 | 1420 | 0.978 | > 1000 | 0.917 | > 2560 | 0.877 | > 128 | 0.861 | 231 | 0.973 | > 20000
3 | RPMI-8226 (myeloma, suspension) | 0.669 | 2.15 | 0.991 | > 10000 | 0.255 | 279 | 0.991 | > 2560 | 0.991 | > 2000 | 0.932 | > 16000 | 0.989 | > 1020 | 0.885 | 8460 | 0.018 | < 20 | 0.8 | 411 | 0.819 | 1210 | 0.71 | 28.5 | 0.787 | 96.2 | 0.905 | > 20000
4 | KARPAS-422 (B-cell lymphoma, suspension) | 0.95 | > 12.5 | 0.983 | > 10000 | 0.342 | 458 | 0.985 | > 2560 | 0.975 | > 2000 | 0.914 | > 16000 | 0.988 | > 1020 | 0.975 | > 10000 | 0.025 | < 20 | 0.977 | > 1000 | 0.66 | 441 | 0.919 | > 128 | 0.701 | 58.3 | 0.702 | 4570
5 | NB69 (neuroblastoma, adherent) | 0.828 | 6.54 | 0.984 | > 10000 | 0.343 | 484 | 0.686 | 496 | 0.962 | > 2000 | 0.989 | > 16000 | 0.985 | > 1020 | 0.813 | 4630 | 0.383 | 159 |  |  | 0.448 | 117 | 0.754 | 38.8 | 0.823 | 129 | 0.903 | > 20000
6 | EW-11 (Ewing sarcoma, adherent) | 0.607 | 1.67 | 0.972 | > 10000 | 0.305 | 299 | 0.597 | 319 | 0.973 | > 2000 | 0.977 | > 16000 | 0.971 | > 1020 | 0.912 | > 10000 | 0.054 | < 20 | 0.935 | > 1000 | 0.792 | 1550 | 0.853 | > 128 | 0.945 | > 256 | 0.96 | > 20000
7 | NCI-H847 (small cell lung carcinoma, adherent) | 0.966 | > 12.5 | 0.993 | > 10000 | 0.111 | 102 | 0.855 | 1460 | 0.993 | > 2000 | 0.993 | > 16000 | 0.963 | > 1020 | 0.993 | > 10000 | 0.015 | < 20 | 0.977 | > 1000 | 0.853 | 1440 | 0.474 | 6.87 | 0.727 | 60.6 | 0.681 | 3580
8 | ES5 (Ewing sarcoma, adherent) | 0.562 | 1.19 | 0.97 | > 10000 | 0.136 | < 78.1 | 0.487 | 147 | 0.929 | > 2000 | 0.979 | > 16000 | 0.977 | > 1020 | 0.908 | > 10000 | 0.035 | < 20 | 0.966 | > 1000 | 0.765 | 1070 | 0.61 | 16.8 | 0.958 | > 256 | 0.88 | > 20000
9 | NCI-H1869 (lung squamous cell carcinoma, adherent) | 0.889 | > 12.5 | 0.984 | > 10000 | 0.636 | 3120 | 0.919 | > 2560 | 0.955 | > 2000 | 0.985 | > 16000 | 0.985 | > 1020 | 0.928 | > 10000 | 0.04 | < 20 | 0.983 | > 1000 | 0.913 | > 2560 | 0.962 | > 128 | 0.765 | 106 | 0.964 | > 20000
